From publication PMC4336329 (PLoS ONE, 2015)
Among all 310,000 compounds or so, about 2,200 (0.71%) showed an effect of 50% or more. Effects have a minus sign here. This is one part of the list.

Biological target: human ether-à-go-go-related gene (hERG) potassium channel (human, UniProt Q12809)
Test: primary screen, population patch clamp on CHO cells stably expressing hERG

human ether-à-go-go-related gene (hERG) potassium channel, sequence (Q12809 whole entry, looked up): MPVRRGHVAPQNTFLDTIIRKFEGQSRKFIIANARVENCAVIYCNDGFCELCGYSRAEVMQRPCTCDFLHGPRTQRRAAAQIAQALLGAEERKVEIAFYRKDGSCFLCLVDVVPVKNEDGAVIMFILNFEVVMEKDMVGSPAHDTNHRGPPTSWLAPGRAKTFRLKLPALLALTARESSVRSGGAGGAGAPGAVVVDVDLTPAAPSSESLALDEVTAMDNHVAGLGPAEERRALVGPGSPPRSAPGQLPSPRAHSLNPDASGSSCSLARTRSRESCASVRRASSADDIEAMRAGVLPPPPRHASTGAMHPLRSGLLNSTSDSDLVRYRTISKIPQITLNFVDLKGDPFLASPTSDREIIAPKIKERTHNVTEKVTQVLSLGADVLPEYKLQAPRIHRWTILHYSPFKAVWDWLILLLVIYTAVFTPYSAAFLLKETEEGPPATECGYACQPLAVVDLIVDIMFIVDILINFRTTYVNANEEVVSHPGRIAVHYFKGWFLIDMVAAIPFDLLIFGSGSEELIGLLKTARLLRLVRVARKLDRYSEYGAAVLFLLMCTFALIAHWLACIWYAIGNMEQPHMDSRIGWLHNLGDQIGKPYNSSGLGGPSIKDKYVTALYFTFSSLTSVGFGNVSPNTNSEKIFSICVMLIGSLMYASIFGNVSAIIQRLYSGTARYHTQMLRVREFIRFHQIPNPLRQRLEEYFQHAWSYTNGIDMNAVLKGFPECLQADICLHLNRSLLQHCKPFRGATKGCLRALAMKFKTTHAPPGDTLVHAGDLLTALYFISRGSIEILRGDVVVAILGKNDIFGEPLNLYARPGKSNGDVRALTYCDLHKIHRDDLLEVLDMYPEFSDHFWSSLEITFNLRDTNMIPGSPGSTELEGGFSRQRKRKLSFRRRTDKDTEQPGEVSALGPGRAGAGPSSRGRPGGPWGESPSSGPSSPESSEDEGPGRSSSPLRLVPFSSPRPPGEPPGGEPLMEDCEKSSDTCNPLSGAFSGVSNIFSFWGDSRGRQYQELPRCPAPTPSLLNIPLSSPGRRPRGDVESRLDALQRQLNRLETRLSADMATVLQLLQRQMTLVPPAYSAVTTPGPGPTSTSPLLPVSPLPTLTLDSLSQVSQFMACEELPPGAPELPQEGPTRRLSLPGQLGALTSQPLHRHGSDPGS

**Q.** Which “hERG current change (%, negative = inhibition) at 1uM” value does the source give for `N/C(Cc1nc2ccccc2s1)=N\O` here?
**A.** 8.45%

**Q.** `c1csc(CNc2ncnc3ccc(-c4ccoc4)cc23)c1` was tested. Which “hERG current change (%, negative = inhibition) at 1uM” value did it give?
**A.** 9.91%

**Q.** How did the “hERG current change (%, negative = inhibition) at 1uM” value turn out when `COc1ccc(/C=C/C(=O)OCC(=O)NCc2ccccc2)cc1OC` was run?
**A.** 13.2%

**Q.** For `CN(C)C(CNC(=O)c1ccc2ccccc2c1)c1ccco1` (stereo not drawn), which “hERG current change (%, negative = inhibition) at 1uM” value is on record?
**A.** 4.08%

**Q.** How did the “hERG current change (%, negative = inhibition) at 1uM” value turn out when `CCOc1ccc(CCNC(=O)c2c(C)nn(-c3ccccc3)c2Cl)cc1OCC` was run?
**A.** -6.57%

**Q.** With `CCc1ccc2[nH]c(=O)c(CN(CCN(C)C)C(=S)NCc3ccco3)cc2c1` as the compound, how does the “hERG current change (%, negative = inhibition) at 1uM” value read?
**A.** -4.63%

**Q.** With `Cc1ccc2nc(NC(=O)CCNS(=O)(=O)c3cccs3)sc2c1` as the compound, how does the “hERG current change (%, negative = inhibition) at 1uM” value read?
**A.** 5.2%

**Q.** Which “hERG current change (%, negative = inhibition) at 1uM” value does the source give for `CCCN(CCC)c1nc(NC2CCN(C(=O)OCC)CC2)nc(OC)n1` here?
**A.** 7.35%

**Q.** Which “hERG current change (%, negative = inhibition) at 1uM” value does the source give for `CCOC(=O)C1=C(N)Oc2cc(O)ccc2C1c1ccc(C)cc1` (stereo not drawn) here?
**A.** 6.52%

**Q.** With `Cc1sc2nc(C3CC3)nc(SCC(=O)N3CCCc4ccccc43)c2c1C` as the compound, how does the “hERG current change (%, negative = inhibition) at 1uM” value read?
**A.** 16.5%

**Q.** Which “hERG current change (%, negative = inhibition) at 1uM” value does the source give for `Cc1ccc(NS(=O)(=O)c2ccc(OCC(=O)NCc3ccccn3)cc2)cc1` here?
**A.** 16%

**Q.** For `Cc1nnc(NC(=O)C(C)Sc2nnc(CCNC(=O)c3ccccc3F)n2C)s1` (stereo not drawn), which “hERG current change (%, negative = inhibition) at 1uM” value is on record?
**A.** 17.3%

**Q.** Which “hERG current change (%, negative = inhibition) at 1uM” value does the source give for `COc1ccc(C(=O)Nc2ccc(O)c3ccccc23)cc1OC` here?
**A.** 12.1%

**Q.** How did the “hERG current change (%, negative = inhibition) at 1uM” value turn out when `O=C(CSc1ncnc2c1oc1ccccc12)NC1CCCC1` was run?
**A.** -20.3%

**Q.** `O=C(CCc1nnc(-c2ccsc2)o1)N1CCc2c(Cl)cccc2C1` was tested. Which “hERG current change (%, negative = inhibition) at 1uM” value did it give?
**A.** 0.759%

**Q.** Which “hERG current change (%, negative = inhibition) at 1uM” value does the source give for `CCOC(=O)c1c(CN2CCOCC2)n(-c2ccccc2)c2cc(Br)c(O)c(CN(C)C)c12` here?
**A.** -2.3%

**Q.** `CCCC(C)NC(=O)c1ccc(C2SCC(=O)N2Cc2ccco2)cc1` (stereo not drawn) was tested. Which “hERG current change (%, negative = inhibition) at 1uM” value did it give?
**A.** 9.61%

**Q.** How did the “hERG current change (%, negative = inhibition) at 1uM” value turn out when `CSc1cccc(NC(=O)Nc2nc3c(C)cccc3s2)c1` was run?
**A.** 11.8%

**Q.** For `Cc1ccc2nc(N3CCN(c4ccccc4)CC3)c(C=O)c(=O)n2c1`, which “hERG current change (%, negative = inhibition) at 1uM” value is on record?
**A.** 0.7%

**Q.** With `COc1ccc(-c2oc(=O)c3cc(OC)c(OC)cc3c2/C=C/c2ccc(F)cc2)cc1` as the compound, how does the “hERG current change (%, negative = inhibition) at 1uM” value read?
**A.** 20.6%

**Q.** `CC(C)=CC(=O)Nc1ccc2c(c1)OCO2` was tested. Which “hERG current change (%, negative = inhibition) at 1uM” value did it give?
**A.** 13.4%

**Q.** `Cc1ccc(C(=O)c2ccccc2C(=O)O)s1` was tested. Which “hERG current change (%, negative = inhibition) at 1uM” value did it give?
**A.** 0.373%

**Q.** How did the “hERG current change (%, negative = inhibition) at 1uM” value turn out when `N#CCCCC#Cc1ccc2c(c1)COc1c3ccccc3nn1-2` was run?
**A.** 9.98%

**Q.** Which “hERG current change (%, negative = inhibition) at 1uM” value does the source give for `COc1ccc(OCC(=O)OC(C)CN2CCOCC2)cc1` (stereo not drawn) here?
**A.** 16%

**Q.** `CC(C)C(=O)Nc1ccc(S(=O)(=O)Nc2nccc(/C=C/c3ccccc3)n2)cc1` was tested. Which “hERG current change (%, negative = inhibition) at 1uM” value did it give?
**A.** 11.8%

**Q.** With `COc1cccc(CN(C)C(=S)Nc2cccc(C)c2)c1` as the compound, how does the “hERG current change (%, negative = inhibition) at 1uM” value read?
**A.** 16.3%

**Q.** With `CC1CCN(S(=O)(=O)c2ccc3c(c2)c(=O)c(C(=O)NC2CCCC2)cn3C)CC1` as the compound, how does the “hERG current change (%, negative = inhibition) at 1uM” value read?
**A.** 9.59%

**Q.** Which “hERG current change (%, negative = inhibition) at 1uM” value does the source give for `COc1ccc(C(C)=O)c(Oc2nc(CN3CCOCC3)nc3scc(-c4cccs4)c23)c1` here?
**A.** 1.14%

**Q.** With `Cn1c(CCN2CCN(c3ccccn3)CC2)nc2cc(NC(=O)COc3ccc([N+](=O)[O-])cc3)ccc21` as the compound, how does the “hERG current change (%, negative = inhibition) at 1uM” value read?
**A.** 9.63%

**Q.** For `COCCNC(=O)C(=O)NCC1OCCN1C(=O)c1ccc(Cl)cc1` (stereo not drawn), which “hERG current change (%, negative = inhibition) at 1uM” value is on record?
**A.** 5.99%

**Q.** How did the “hERG current change (%, negative = inhibition) at 1uM” value turn out when `O=C(CN1C(=O)CCC1=O)Nc1nc(-c2ccc3ccccc3c2)cs1` was run?
**A.** 5.6%

**Q.** With `CCOc1ccc(NC(=O)C/C(C)=N/NC(=O)Cc2cccs2)cc1` as the compound, how does the “hERG current change (%, negative = inhibition) at 1uM” value read?
**A.** 20%

**Q.** How did the “hERG current change (%, negative = inhibition) at 1uM” value turn out when `O=C(CN1CCCC1)Nc1c2c(nc3ccccc13)N(Cc1ccccc1)CC2.O=C(O)C(=O)O` was run?
**A.** 5.47%

**Q.** For `C=CCc1cccc2cc(C(=O)N3CCN(C(=O)c4ccccc4)CC3)c(=O)oc12`, which “hERG current change (%, negative = inhibition) at 1uM” value is on record?
**A.** 8.04%

**Q.** How did the “hERG current change (%, negative = inhibition) at 1uM” value turn out when `Cc1cc(/C=N/NC(N)=O)c(C)n1C1CCCCC1` was run?
**A.** 2.5%

**Q.** How did the “hERG current change (%, negative = inhibition) at 1uM” value turn out when `COc1ccc2nc(SCC(=O)Nc3ccc4c(c3)CCC4)[nH]c2c1` was run?
**A.** 10.4%

**Q.** Which “hERG current change (%, negative = inhibition) at 1uM” value does the source give for `COC(=O)C(C)Sc1ccc2nnc(-c3ccccc3)n2n1` (stereo not drawn) here?
**A.** -2.06%

**Q.** For `Cc1ccc(C(=O)NN2CCOCC2)cc1[N+](=O)[O-]`, which “hERG current change (%, negative = inhibition) at 1uM” value is on record?
**A.** 15.1%

**Q.** For `Cc1cccnc1NC(=O)C1CCN(S(=O)(=O)c2ccc3c(c2)CCC(=O)N3)CC1`, which “hERG current change (%, negative = inhibition) at 1uM” value is on record?
**A.** 15%

**Q.** `Cc1[nH]c2c(ccc3cccnc32)c1C` was tested. Which “hERG current change (%, negative = inhibition) at 1uM” value did it give?
**A.** 11.7%

**Q.** With `COc1ccc(/C=N\NC(=O)c2ccccc2Br)cc1COc1c(F)c(F)cc(F)c1F` as the compound, how does the “hERG current change (%, negative = inhibition) at 1uM” value read?
**A.** 3.99%

**Q.** Which “hERG current change (%, negative = inhibition) at 1uM” value does the source give for `COc1ccc(CCC(=O)NCCCNC(=O)CCc2ccc(OC)cc2)cc1` here?
**A.** 10.1%

**Q.** Which “hERG current change (%, negative = inhibition) at 1uM” value does the source give for `COc1cccc(/C=C/C(=O)OCC(=O)c2ccc(C)c(C)c2)c1OC` here?
**A.** 2.49%

**Q.** With `CCOc1ccc(OCCC(=O)N(CC)CC(=O)Nc2c(F)cccc2F)cc1` as the compound, how does the “hERG current change (%, negative = inhibition) at 1uM” value read?
**A.** -8.38%

**Q.** Which “hERG current change (%, negative = inhibition) at 1uM” value does the source give for `Cc1cc(NC(=O)CSc2nnc(C3CC3)n2N)no1` here?
**A.** 6.51%
